Data published in PubChem BioAssay AID463173 (ICCB-Longwood Screening Facility, Harvard Medical School, 2010).
Screen size: about 52,000 compounds; about 4,300 (8.3%) were called active. Cut-off read from the data, not from the text of the source: active = survival mostly below about 52% (no sharp cut-off); inactive = mostly above about 56%. The list shows a part of the results.

Test system: DeltatarO mutant
Assay: S. aureus survival, RN4220 and DeltatarO strains – OD600, teichoic acid synthesis inhibitors, primary screen (AID 463173)
Conditions: S. aureus RN4220 wild type/DeltatarO growth, OD600, 18 h, active compounds read low, screened at 18.75 µg/mL (by protocol)

Row | Structure (SMILES) | survival
1 | COc1cc(-c2nnc(SCC(=O)N3CCCc4ccccc43)o2)cc(OC)c1OC | inactive: 66%
2 | CCc1ccc(S(=O)(=O)c2nnn3c2nc(Nc2cccc(C)c2C)c2sccc23)cc1 | inactive: 79%
3 | CN(C)C(=O)Cn1c2[n+](c3ccccc31)CC(O)CS2 (stereo not drawn) | inactive: 66%
4 | N#Cc1ccccc1NC(=O)C(=O)NCC(c1cccnc1)N1CCc2ccccc2C1 (stereo not drawn) | inactive: 66%
5 | O=C(Nc1cccc(F)c1)N1C2CCC1CC(O)(c1cccnc1)C2 (stereo not drawn) | inactive: 83%
6 | COC(=O)C1C(=O)C2=C(CC1C)Nc1ccccc1NC2c1ccc(C)cc1 (stereo not drawn) | inactive: 79%
7 | CCC1=NN(C(=O)C(C)C)C(O)(C(F)(F)F)C1 (stereo not drawn) | inactive: 91%
8 | O=C(Cn1nc2c(cc1=O)CCCC2)NCc1ccccc1Cl | inactive: 144%
9 | Cc1ccc(C(=O)Nc2nnc(SCc3cc(=O)n4ccc(C)cc4n3)s2)cc1 | inactive: 109%
10 | Cc1cc(C)cc(NC(=O)Cn2nnc(C(=O)NCc3ccco3)c2N)c1 | inactive: 88%
11 | O=C(CN1C(=O)COc2ccc(S(=O)(=O)N3CCCCCC3)cc21)N1CCN(c2ccccc2)CC1 | inactive: 79%
12 | CCC(=O)N1c2nc(C(C)C)nn2C2(CCCCC2)[C@@H]2CCCC[C@@H]21 | inactive: 81%
13 | CCCNS(=O)(=O)c1ccc(OCC(=O)NCc2ccccn2)cc1 | inactive: 96%
14 | CCCN(C(=O)CCn1cnc2onc(-c3ccc(F)cc3)c2c1=O)c1ccccc1C | inactive: 82%
15 | Cc1ccc(Cl)cc1N1CCN(C(=O)Cn2nc(C)n3c(cc4sccc43)c2=O)CC1 | inactive: 102%
16 | CCOC(=O)c1c(-c2ccccc2)csc1NC(=O)c1cc(-c2cccc(OC)c2)on1 | active: 43%
17 | Cc1cc(C)cc(C(=O)Nc2c3c(nn2-c2ccccc2C)CS(=O)(=O)C3)c1 | inactive: 79%
18 | Cc1cccc(C)c1NC(=O)CSc1nnc(C)n1Cc1ccccc1 | inactive: 93%
19 | Cc1cn2c(=O)cc(COc3cccc(NC(=O)c4cccc(F)c4)c3)nc2s1 | inactive: 79%
20 | COc1ccc(C(=O)Nc2ccc3nc(N4CCCCC4)cc(C)c3c2)c(OC)c1 | active: 44%
21 | COc1ccc(N2CCN(S(=O)(=O)CCNC(=O)Cc3ccc(-c4ccccc4)cc3)CC2)cc1 | inactive: 115%
22 | CCOC(=O)c1c(NC(C)=O)c2c3c(sc2n1Cc1cccc(Cl)c1)CCCC3 | inactive: 104%

Row | Structure (SMILES) | survival
23 | Cc1ccc(C(CC(=O)Nc2ccc(C)cc2C)N2Cc3ccccc3C2=O)cc1 (stereo not drawn) | inactive: 94%
24 | CCOC(=O)c1cccc(NC(=O)C2CCN(c3nnc(C)c4c(C)n(-c5ccccc5)nc34)CC2)c1 | inactive: 84%
25 | COc1ccc(Cl)cc1NC(=O)C(C)N1Cc2ccccc2C1=O (stereo not drawn) | inactive: 89%
26 | COc1ccc(NCc2cccn2-c2nnc(N3CCOCC3)s2)c(OC)c1 | inactive: 78%
27 | CCOc1cc(CNC(=O)C(NS(=O)(=O)c2cccs2)C(C)C)cc(OCC)c1OCC (stereo not drawn) | inactive: 66%
28 | O=C(Cn1c(SCc2cccc(F)c2)nc2ccncc21)Nc1ccc(Cl)cc1F | inactive: 52%
29 | CCOc1cc(CNC(=O)c2ccc(NC(=O)c3nsc4ccccc34)cc2)ccc1OC | inactive: 82%
30 | CCN(CC)c1ccc(NC(=O)c2cc(CN3CCCC3)on2)c(C)c1 | inactive: 102%
31 | CCOc1ccc(NC(=O)CC2C(=O)N(c3cccc(OC)c3)C(=O)N2C2CCCCC2)cc1 (stereo not drawn) | inactive: 68%
32 | CCC(Oc1ccc(F)cc1)C(=O)Nc1cc(-c2ccc(C)cc2)no1 (stereo not drawn) | inactive: 54%
33 | COc1cccc(CNC(=O)Nc2cc(C(=O)NCc3cccc(F)c3)ccc2N2CCCC2)c1 | inactive: 68%
34 | COc1ccc(C(=O)NC2(C(F)(F)F)C(=O)NC(C)=C2C#N)cc1 (stereo not drawn) | inactive: 71%
35 | Cc1cc(C)n2nc(-c3ccccc3)cc2n1 | inactive: 97%
36 | CCc1cccc(NC(=O)Cn2nc(CC)n3c(cc4cc(C)ccc43)c2=O)c1 | inactive: 56%
37 | O=c1oc2ccc3ccccc3c2cc1-c1nnc(Nc2ccccc2)s1 | inactive: 84%
38 | COc1ccc2c(C)c(CC(=O)NCCc3ccccc3)c(=O)oc2c1OC | inactive: 60%
39 | CC1(C)CC(=O)c2cc(C(=O)NC(C)(C)C)c(=O)n(-c3ccccc3)c2C1 | active: 39%
40 | Cc1cc(C)cc(N2C(=O)CC(c3ccc(C(F)(F)F)cc3)C3=C2COC3=O)c1 (stereo not drawn) | inactive: 72%
41 | Cc1cccc(NC(=O)CSc2nc(-c3cccs3)cc(C(F)(F)F)c2C#N)c1 | inactive: 55%
42 | CC(=O)N1CCN(CCN2C(=O)C3C4c5ccccc5C(c5ccccc54)C3C2=O)CC1 (stereo not drawn) | inactive: 94%
43 | CCN1CCN(c2csc3ccc(Cl)cc3c2=O)CC1 | inactive: 80%
44 | COc1ccc(Cn2c(SCC(=O)NCc3ccccc3)nc3ccccc32)cc1 | inactive: 117%

Row | Structure (SMILES) | survival
45 | CCOc1ccc(NC(=O)Cn2nnc(C(=O)OC)c2C(=O)OC)cc1 | inactive: 93%
46 | Cc1ccc(C(=O)NCC(=O)OCc2cc(=O)n3nc(C4CCCCC4)sc3n2)cc1 | inactive: 71%
47 | Cc1cccc(OCc2ccc(-c3nc(C#N)c(N4CCN(c5ccccc5)CC4)o3)o2)c1 | inactive: 118%
48 | Cc1ccc(C)c(CN2C(=O)c3ccccc3Sc3ccc(C(=O)NCc4ccco4)cc32)c1 | active: 17%
49 | Cc1cc(C)c2oc(C(=O)Nc3c(C(=O)c4ccc(F)cc4)oc4ccccc34)cc(=O)c2c1 | inactive: 113%
50 | CCc1cccc(C)c1Nc1c(-c2ccc(N(C)C)cc2)nc2ncccn12 | inactive: 130%
51 | Cc1cc(S(=O)(=O)Nc2cccc(-c3ccc(N4CCOCC4)nn3)c2)c(C)cc1Cl | inactive: 80%
52 | COc1cccc(NC(=O)CSc2nc(O)c(C/C=C/c3ccccc3)c(=O)[nH]2)c1 | inactive: 92%
53 | COc1ccc(N2CCN(S(=O)(=O)c3ccc(-c4cc(C(F)(F)F)on4)s3)CC2)cc1 | inactive: 72%
54 | Cc1ccc(CCNC(=O)c2sc3ncccc3c2-n2cccc2)cc1 | inactive: 103%
55 | CCC(=O)Nc1cc(C(=O)NCc2ccc(C)cc2)ccc1S(=O)(=O)c1ccc(C)cc1 | inactive: 97%
56 | CC(=O)Nc1ccc(OCC(O)Cn2ccnc2)cc1 (stereo not drawn) | inactive: 109%
57 | CCC(C)(C)C(=O)Nc1nnc(COC)s1 | inactive: 97%
58 | O=C(NCCSc1c(-c2ccc(Br)cc2)[nH]c2ccccc12)c1ccc(S(=O)(=O)N2CCOCC2)cc1 | inactive: 72%
59 | Cc1ccc(CNC(=O)C(CC(C)C)N2Cc3ccccc3C2=O)cc1 (stereo not drawn) | inactive: 124%
60 | Cc1cc(C)cc(NC(=O)C(Cc2ccccc2)N2Cc3ccccc3C2=O)c1 (stereo not drawn) | inactive: 81%
61 | Clc1cccc(-n2ncc3c(NCCCc4ccccc4)ncnc32)c1 | inactive: 95%
62 | CCN(CC)c1ccc(NC(=O)Cn2c(C)c3cnn(-c4ccccc4)c(=O)c3c2C)c(C)c1 | inactive: 87%
63 | CCC(C(=O)N1CCN(c2ccccn2)CC1)c1ccccc1 (stereo not drawn) | inactive: 75%
64 | COC(=O)c1c(-c2cccs2)csc1NC(=O)c1cc(OC)cc(OC)c1 | inactive: 69%
65 | CCCCn1c(-c2ccc(S(=O)(=O)N3CCOCC3)cc2)csc1=Nc1ccccc1 | active: 48%
66 | Cc1cccc(Cn2c(CN3CCC(C(=O)NCCc4ccccc4)CC3)cc3ccccc32)c1 | inactive: 120%

Row | Structure (SMILES) | survival
67 | COc1ccc(C(=O)Nc2cc(C(F)(F)F)ccc2N2CCN(c3ccccc3)CC2)cc1OC | inactive: 62%
68 | O=C(CCCSc1nc(-c2ccco2)cc(C(F)(F)F)n1)NC1CCCCC1 | inactive: 86%
69 | COc1ccc(-c2c(C)nn3c4c(cnc23)C(=O)CC(c2ccc(C)cc2)C4)cc1 (stereo not drawn) | inactive: 124%
70 | CCN(c1cccc(C)c1)S(=O)(=O)c1nnc(NC(=O)c2cccs2)s1 | active: 21%
71 | Cc1c(C(=O)Nc2ccccc2Br)oc2ccc(S(=O)(=O)N3CCCCC3)cc12 | inactive: 78%
72 | Cc1ccc(CSCC(=O)N2CCN(Cc3ccc4c(c3)OCO4)CC2)cc1 | inactive: 80%
73 | COc1ccc(C2c3c(-c4ccccc4O)n[nH]c3C(=O)N2Cc2ccco2)cc1 (stereo not drawn) | active: 1%
74 | CCOC(=O)C1=C(CN2CCN(c3ccccc3)CC2)NC(=O)NC1c1ccc(C)cc1 (stereo not drawn) | inactive: 115%
75 | CCN1/C(=C/C=C2\SC(=S)N(C)C2=O)Oc2ccccc21 | inactive: 82%
76 | Cc1sc2ncn(CC(=O)Nc3cccc(C(F)(F)F)c3)c(=O)c2c1S(=O)(=O)N1CCC(C)CC1 | inactive: 76%
77 | COc1cccc(C(=O)NC(=O)Nc2ccc(-c3cc(C(F)(F)F)nn3-c3ccccc3)cc2)c1 | inactive: 155%
78 | O=C(Nc1ccccc1C(=O)OCc1cc(=O)n2nc(C3CC3)sc2n1)c1cccc(Cl)c1 | inactive: 84%
79 | Cc1cc(C)cc(NC(=O)NCCn2nnc3cc(S(=O)(=O)N(C)C)ccc32)c1 | inactive: 115%
80 | CSc1ncc(Cl)c(C(=O)N(Cc2ccccc2Cl)C2CCS(=O)(=O)C2)n1 (stereo not drawn) | inactive: 112%
81 | CCOc1ccc(C(=O)OCc2cc(=O)n3nc(C4CCCCC4)sc3n2)cc1 | inactive: 70%
82 | CCC(=O)Nc1nnc(S(=O)(=O)N(C)Cc2ccccc2)s1 | inactive: 87%
83 | COc1cccc(NC(=O)Cn2c(=O)n(-c3ccc(CC(=O)NCC4CCCO4)cc3)c(=O)c3ccccc32)c1 (stereo not drawn) | inactive: 90%
84 | C=CCn1c(=O)/c(=C2/Sc3ccccc3N2CC)s/c1=C1/C(=O)NN=C1C | inactive: 89%
85 | O=C(NCCc1csc(-c2cccnc2)n1)c1cccc(C(F)(F)F)c1 | inactive: 77%
86 | CCc1nnc2c3ccccc3nc(N3CCN(c4ccc(C)cc4C)CC3)n12 | inactive: 71%
87 | CCOc1ccc(NC(=O)Cn2c(C)ccc(C#N)c2=O)cc1 | inactive: 171%
88 | O=c1[nH]c(=O)n(CCC2=CCCCC2)c(O)c1/C=C1/C=CC=N1 | inactive: 69%
